# Laboratory results taken from the supplement of paper PMC11417369.
# ± gives the standard deviation of the averaged measurements. This is one part of the list.
# System: PfAP2-LT AP2 domain (GST-tagged)
# Assay: gcPBM binding intensity (ln(normalized median fluorescence intensity)); higher = stronger DNA binding
# Outline: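 DNA-binding domains from P. falciparum, fused to GST and produced in E. coli, were put on an Agilent 4 × 180k double-stranded probe array for 1 h in 1× PBS holding 1% milk, 0.2 mg/ml BSA, 0.5% salmon testes DNA and 0.03% Triton X-100. Probes were primer-extended, 36 bp long and drawn from intergenic genomic regions, with negative controls included. After Alexa488 anti-GST antibody detection and a 488 nm scan, binding intensity was set as the highest Masliner-normalised natural-log median intensity across replicate spots of either probe orientation.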
row,Sequence,gcPBM binding intensity (ln)
1,AACCATTTTAAATATGCACACAGATGCACTAACACA [CACACA_site8565],9.26 ± 0.24
2,GAATTATATAATTAAAGTACATTGTTTATATAATCA [XGTACX_site7246],8.52 ± 0.51
3,TCCTTTCAACCATATATAATGACATGTACTCAAAAA [GTGCAC_negctrl_site417],8.56 ± 0.45
4,CATCCATATAAAATATGTACATATATATATATATAT [XGTACX_site5859],9.535 ± 0.064
5,TATTTTAGTAAAGGTGGTACTTTTAAGTTCATGTAT [XGTACX_site1854],8.67 ± 0.48
6,AAAAAAAAAGAAAAATGTACATACATAAATATATAT [XGTACX_site5664],8.84 ± 0.57
7,ATTATAAACCATAATTAACACACAAAATAAGTTACA [CACACA_site9057],8.96 ± 0.39
8,ATTCTATTTTTTATAAAACCATGTCATCAACATAGG [CACACA_negctrl_site237],8.46 ± 0.6
9,AAAAAAAAAAAAAAAAGTACACAAATAGATTTATAT [XGTACX_site3727],8.49 ± 0.53
10,TCGTGAGAAAATATTACACACATTTACTATAGTATC [CACACA_site3444],9.05 ± 0.43
11,TTTTTTAAAGATTACTCAAAAAAATAAAAAAATAAA [GTGCAC_negctrl_site222],7.92 ± 0.53
12,TTTTTTTTTTTTTTTTGATACATTAACCTACAATGG [GTGCAC_negctrl_site625],8.27 ± 0.52
13,TGAGTTCAACAAAGACGTACAAAACCAAAAATATAA [XGTACX_site8931],8.88 ± 0.57
14,TATATATCAAGACACACACACATATATTTATTTATA [CACACA_site7733],9.55 ± 0.34
15,GATAATTTATTTTTTCGTACACAAAATATAATATAT [XGTACX_site1470],8.45 ± 0.42
16,TATATATATATATTCACACATATAGTATTGTATTTA [CACACA_site5147],9.14 ± 0.2
17,TATATTTTATATTAGTGTACAAATTTCATTTTTCAT [XGTACX_site2204],8.6 ± 0.54
18,AATATATATAAAAAAGTGCATTAGGATAACCATATA [GTGCAC_site9590],8.88 ± 0.39
19,AAGAAGAAAAACCATTGTACGAACTAACATATATAA [XGTACX_site3226],8.83 ± 0.55
20,GGTATACATAATACTTGTACTAGGCAACAATAAGAT [XGTACX_site1437],9.09 ± 0.4
21,TGTTAAAAGAAAAAAAGTACAAAAAATTATACATTT [XGTACX_site467],8.45 ± 0.47
22,ATATATTTATATTTGTGTACATATTTATTATATTTA [XGTACX_site404],8.91 ± 0.49
23,ATTTGTGACCACACAAATAAATAAATAAAAAAAAAA [TGCATGCA_negctrl_site328],8.54 ± 0.61
24,AATATGAATATCTATACACACACATATATATACACA [CACACA_site8459],9.45 ± 0.26
